# Results: the supplement of paper PMC8728848
# The list shows a part of the results.
# How the values were obtained:
# Assay in all cases: glycan array binding signal (z-score within array); higher = stronger binding
# Settings in all cases: glycan notation: IUPAC condensed, linker removed
# [1] = target: Fuc(a1-2)Gal(b1-4)GlcNAc(b1-3)Gal(b1-4)GlcNAc(b1-3)Gal(b1-4)GlcNAc
# How it was run: (§1)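 From the Consortium for Functional Glycomics database, 3228 arrays were curated, keeping only those whose protein sequence was available. Binding is given as a within-array Z-score averaged across arrays sharing a protein sequence and across linkers. Negative Z-scores can be read as non-binding.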
# [2] = target: Fuc(a1-2)Gal(b1-4)GlcNAc(b1-3)GalNAc
# How it was run: as §1
# [3] = target: Fuc(a1-2)Gal(b1-4)GlcNAc(b1-3)[Fuc(a1-2)Gal(b1-4)GlcNAc(b1-6)]GalNAc
# How it was run: as §1
# [4] = target: Fuc(a1-2)Gal(b1-4)GlcNAc(b1-6)GalNAc
# How it was run: as §1
# [5] = target: Fuc(a1-2)Gal(b1-4)GlcNAc6S
# How it was run: as §1
# [6] = target: Fuc(a1-2)Gal(b1-4)[Fuc(a1-3)]GlcNAc
# How it was run: as §1
# [7] = target: Fuc(a1-2)Gal(b1-4)[Fuc(a1-3)]GlcNAc(b1-2)Man(a1-3)[Fuc(a1-2)Gal(b1-4)[Fuc(a1-3)]GlcNAc(b1-2)Man(a1-6)]Man(b1-4)GlcNAc(b1-4)GlcNAc
# How it was run: as §1
# [8] = target: Fuc(a1-2)Gal(b1-4)[Fuc(a1-3)]GlcNAc(b1-2)Man(a1-6)[Fuc(a1-2)Gal(b1-4)[Fuc(a1-3)]GlcNAc(b1-2)Man(a1-3)]Man(b1-4)GlcNAc(b1-4)[Fuc(a1-6)]GlcNAc
# How it was run: as §1
# [9] = target: Fuc(a1-2)Gal(b1-4)[Fuc(a1-3)]GlcNAc(b1-2)[Fuc(a1-2)Gal(b1-4)[Fuc(a1-3)]GlcNAc(b1-4)]Man(a1-3)[Fuc(a1-2)Gal(b1-4)[Fuc(a1-3)]GlcNAc(b1-2)Man(a1-6)]Man(b1-4)GlcNAc(b1-4)GlcNAc
# How it was run: as §1
# [10] = target: Fuc(a1-2)Gal(b1-4)[Fuc(a1-3)]GlcNAc(b1-3)Gal(b1-4)[Fuc(a1-3)]GlcNAc
# How it was run: as §1
# [11] = target: Fuc(a1-2)Gal(b1-4)[Fuc(a1-3)]GlcNAc(b1-3)Gal(b1-4)[Fuc(a1-3)]GlcNAc(b1-3)Gal(b1-4)[Fuc(a1-3)]GlcNAc
# How it was run: as §1
# [12] = target: Fuc(a1-2)Gal(b1-4)[Fuc(a1-3)]GlcNAc(b1-3)GalNAc
# How it was run: as §1
# [13] = target: Fuc(a1-2)Gal(b1-4)[Fuc(a1-3)]GlcNAc(b1-3)[Neu5Ac(a2-6)Gal(b1-4)GlcNAc(b1-6)]Gal(b1-4)Glc
# How it was run: as §1
# [14] = target: Fuc(a1-2)Gal6S(b1-3)GlcNAc
# How it was run: as §1
# [15] = target: Fuc(a1-2)Gal6S(b1-3)GlcNAc6S
# How it was run: as §1
# Fuc(a1-2)Gal6S(b1-4)Glc = target: Fuc(a1-2)Gal6S(b1-4)Glc
# How it was run: as §1
# [16] = target: Fuc(a1-2)Gal6S(b1-4)Glc6S
# How it was run: as §1
# [17] = target: Fuc(a1-2)Gal6S(b1-4)GlcNAc
# How it was run: as §1
# Fuc(a1-2)GlcNAc = target: Fuc(a1-2)GlcNAc
# How it was run: as §1
# Fuc(a1-2)[Gal(a1-3)]Gal = target: Fuc(a1-2)[Gal(a1-3)]Gal
# How it was run: as §1
# [18] = target: Fuc(a1-2)[Gal(a1-3)]Gal(b1-3)GalNAc
# How it was run: as §1
# [19] = target: Fuc(a1-2)[Gal(a1-3)]Gal(b1-3)GlcNAc
# How it was run: as §1
# [20] = target: Fuc(a1-2)[Gal(a1-3)]Gal(b1-3)GlcNAc(b1-2)Man(a1-3)[Fuc(a1-2)[Gal(a1-3)]Gal(b1-3)GlcNAc(b1-2)Man(a1-6)]Man(b1-4)GlcNAc(b1-4)GlcNAc
# How it was run: as §1
# [21] = target: Fuc(a1-2)[Gal(a1-3)]Gal(b1-3)GlcNAc(b1-2)Man(a1-3)[Fuc(a1-2)[Gal(a1-3)]Gal(b1-3)GlcNAc(b1-2)Man(a1-6)]Man(b1-4)GlcNAc(b1-4)[Fuc(a1-6)]GlcNAc
# How it was run: as §1
# [22] = target: Fuc(a1-2)[Gal(a1-3)]Gal(b1-3)GlcNAc(b1-3)GalNAc
# How it was run: as §1
# [23] = target: Fuc(a1-2)[Gal(a1-3)]Gal(b1-4)Glc
# How it was run: as §1
# [24] = target: Fuc(a1-2)[Gal(a1-3)]Gal(b1-4)GlcNAc
# How it was run: as §1
# [25] = target: Fuc(a1-2)[Gal(a1-3)]Gal(b1-4)GlcNAc(b1-2)Man(a1-3)[Fuc(a1-2)[Gal(a1-3)]Gal(b1-4)GlcNAc(b1-2)Man(a1-6)]Man(b1-4)GlcNAc(b1-4)GlcNAc
# How it was run: as §1
# [26] = target: Fuc(a1-2)[Gal(a1-3)]Gal(b1-4)GlcNAc(b1-2)Man(a1-3)[Fuc(a1-2)[Gal(a1-3)]Gal(b1-4)GlcNAc(b1-2)Man(a1-6)]Man(b1-4)GlcNAc(b1-4)[Fuc(a1-6)]GlcNAc
# How it was run: as §1
# [27] = target: Fuc(a1-2)[Gal(a1-3)]Gal(b1-4)GlcNAc(b1-3)GalNAc
# How it was run: as §1
binder,measurement,setting,value
"StcE (Escherichia coli), O82882.2 (protein) ADNNSAIYFNTSQPINDLQGSLAAEVKFAQSQILPAHPKEGDSQPHLTSLRKSLLLVRPVKADDKTPVQVEARDDNNKILGTLTLYPPSSLPDTIYHLDGVPEGGIDFTPHNGTKKIINTVAEVNKLSDASGSSIHSHLTNNALVEIHTANGRWVRDIYLPQGPDLEGKMVRFVSSAGYSSTVFYGDRKVTLSVGNTLLFKYVNGQWFRSGELENNRITYAQHIWSAELPAHWIVPGLNLVIKQGNLSGRLNDIKIGAPGELLLHTIDIGMLTTPRDRFDFAKDKEAHREYFQTIPVSRMIVNNYAPLHLKEVMLPTGELLTDMDPGNGGWHSGTMRQRIGKELVSHGIDNANYGLNSTAGLGENSHPYVVAQLAAHNSRGNYANGIQVHGGSGGGGIVTLDSTLGNEFSHEVGHNYGLGHYVDGFKGSVHRSAENNNSTWGWDGDKKRFIPNFYPSQTNEKSCLNNQCQEPFDGHKFGFDAMAGGSPFSAANRFTMYTPNSSAIIQRFFENKAVFDSRSSTGFSKWNADTQEMEPYEHTIDRAEQITASVNELSESKMAELMAEYAVVKVHMWNGNWTRNIYIPTASADNRGSILTINHEAGYNSYLFINGDEKVVSQGYKKSFVSDGQFWKERDVVDTREARKPEQFGVPVTTLVGYYDPEGTLSSYIYPAMYGAYGFTYSDDSQNLSDNDCQLQVDTKEGQLRFRLANHRANNTVMNKFHINVPTESQPTQATLVCNNKILDTKSLTPAPEGLTYTVNGQALPAKENEGCIVSVNSGKRYCLPVGQRSGYSLPDWIVGQEVYVDSGAKAKVLLSDWDNLSYNRIGEFVGNVNPADMKKVKAWNGQYLDFSKPRSMRVVYK",glycan array binding signal (z-score),[1],-0.065
same,glycan array binding signal (z-score),[2],-0.172
same,glycan array binding signal (z-score),[3],2.85
same,glycan array binding signal (z-score),[4],0.098
same,glycan array binding signal (z-score),[5],-0.172
same,glycan array binding signal (z-score),[6],-0.141
same,glycan array binding signal (z-score),[7],-0.102
same,glycan array binding signal (z-score),[8],-0.096
same,glycan array binding signal (z-score),[9],0.068
same,glycan array binding signal (z-score),[10],-0.122
same,glycan array binding signal (z-score),[11],0.133
same,glycan array binding signal (z-score),[12],0.043
same,glycan array binding signal (z-score),[13],-0.159
same,glycan array binding signal (z-score),[14],-0.111
same,glycan array binding signal (z-score),[15],5.23
same,glycan array binding signal (z-score),Fuc(a1-2)Gal6S(b1-4)Glc,-0.165
same,glycan array binding signal (z-score),[16],-0.119
same,glycan array binding signal (z-score),[17],-0.135
same,glycan array binding signal (z-score),Fuc(a1-2)GlcNAc,-0.663
same,glycan array binding signal (z-score),Fuc(a1-2)[Gal(a1-3)]Gal,-0.055
same,glycan array binding signal (z-score),[18],-0.151
same,glycan array binding signal (z-score),[19],-0.157
same,glycan array binding signal (z-score),[20],-0.132
same,glycan array binding signal (z-score),[21],-0.102
same,glycan array binding signal (z-score),[22],-0.107
same,glycan array binding signal (z-score),[23],-0.17
same,glycan array binding signal (z-score),[24],-0.397
same,glycan array binding signal (z-score),[25],-0.116
same,glycan array binding signal (z-score),[26],0.196
same,glycan array binding signal (z-score),[27],0.002
